According to PMC12136788:
The list shows a part of the results.

B1: chr4:175223256:175223257:+_ENSG00000164118_ENST00000503780|hu_hu|motif|central (ssRNA)
RNA: GGGAGUUCUACAGUCCGACGAUCAAAUUGAUCACGAAGAAGCUUAUAGACAGCAUCUAUAAAGCGCAAGUCAUUUUUUGCGGUGAGCUCUACAUUGGAUUCCAUUAUAAGUUCUGUUACAUAAGGUGAGUAUGAGGUAAAAGACAACAGAGGAUUGAGCAUCA
B2: chrX:98862621:98862622:+_ENSMUSG00000034160_ENSMUST00000044475|mus_hu|mus_mus_mus_hu_False|38_58 (ssRNA)
RNA: GGGAGUUCUACAGUCCGACGAUCCUGCAUCUCCUUUAGAGUGUUUCCCAUAUUAGAGUAGGCAUCAGCAAAGGUAGGACUAAUUCGAAUAGCCUCCUUAUAGUGCAUCAGAGCUUCCUGCAGUUUUCCCUGCUGCUGCAGUACCAACAGAGGAUUGAGCAUCA
B3: chr1:89687925:89687926:+_ENSMUSG00000026289_ENSMUST00000027512|mus_mus|FALSE|FALSE (ssRNA)
RNA: GGGAGUUCUACAGUCCGACGAUCUUUUCUGGGAGGACACAUCAUUCUCCAAGAUGGGCCGUGGGGUCCCACGGUGCUCCUAAGGGUGCAGCAUCAAGGCUGUGCCCACAGCACAGCUCUGCUUCCUUUGUCCACACUGACAACCAACAGAGGAUUGAGCAUCA
B4: chrX:50352303:50352304:+_ENSMUSG00000025630_ENSMUST00000026723|mus_hu|motif|central (ssRNA)
RNA: GGGAGUUCUACAGUCCGACGAUCCAGCAUAAUGAUUAGGUAUGCAAAAUAAAUCAAGGUCAUAACCUGGUUCAUCAUCACGGAUCACGACGCCAGGGCUGCGGGUCGCCAUAACGGAGCCGGCCGGCGCGCGGGCUGACUGCUCAACAGAGGAUUGAGCAUCA
B5: chr2:4544944:4544945:-_ENSMUSG00000039449_ENSMUST00000035721|mus_mus|FALSE|FALSE (ssRNA)
RNA: GGGAGUUCUACAGUCCGACGAUCCCUUGAUAUGCUGGUGUUCUGAACUUAGGCUGGUAUAACAGCCAUCUUUCGACCUUCUAUCUCCUAUCAAUUCAUCUGUCCAGAAAGAUGACAACCAUACUCUGCUUAGAAAGAAAAGCACAACAGAGGAUUGAGCAUCA
B6: chr4:144465060:144465061:+_ENSG00000153147_ENST00000283131|hu_mus|FALSE|FALSE (ssRNA)
RNA: GGGAGUUCUACAGUCCGACGAUCAUAGUCUUCUCCUUCAAAGUUAUAAACACUGGACUCUGUGUCCAUCGUAAAGUUUCUAAGUGAACUUUCACCCAUCUUGGAGAGCUUUUCGUUCAUUUCUGCAGUCUUCUUUGCACCUCUCAACAGAGGAUUGAGCAUCA
B7: chr18:54424204:54424205:+_ENSG00000091157_ENST00000357574|hu_hu|FALSE|FALSE (ssRNA)
RNA: GGGAGUUCUACAGUCCGACGAUCCCAGGCGUGAAGGCAGGACAUAAACAGCUUUGCAGUGUCCAUAGUUAAAUUAUAUUCUAAUAGGGUCAAUGGCUUUGAUUUGCUGGACCGAUAUUCAGGAUCACUUUCUUCCCUUCUCUGCAACAGAGGAUUGAGCAUCA
B8: chr4:76572280:76572281:-_ENSG00000138757_ENST00000395719|hu_mus|FALSE|FALSE (ssRNA)
RNA: GGGAGUUCUACAGUCCGACGAUCUUUCAGUUCAUUUUCAUCAAUAUCAUGAGGCAAGUUACCAACGAAAAGCUGAUGACUGUCCGGAUAGCGAAUUAUUCUCCGGUUGUCAGAGUCAUUCUGUUCCAUAUCUCCUCUGCCUGGCAACAGAGGAUUGAGCAUCA
B9: chr20:57486015:57486016:+_ENSG00000087460_ENST00000306090|hu_mus|motif|central (ssRNA)
RNA: GGGAGUUCUACAGUCCGACGAUCCCUUUUUUUUCUUUUUCUUCUGUAGGCCGCCUUAAGCUUACUAAAUUUGGAACAUCGGAGCAAGCUGAAGGGAAGAGGGGUUUUUCAGAAUCACUGGGGGAAAAAGGAAAGGUUGCGGUGCAACAGAGGAUUGAGCAUCA
B10: 23959401_23959521_7647_CDS_ENSMUSG00000039218_ENSMUST00000088621|mouse|control|control (ssRNA)
RNA: GGGAGUUCUACAGUCCGACGAUCGGAAGAGGAAGAAGAGGAAGAGGAGGAGGAGGAGGAGCUGGAACUGGAGCUGCUAGAGCGCCUCUUCCUUUUGGCCGGGGUUGGUUCCUGAGGACGUCCCUCUCUAAUAGCCUCCUUUGGCAACAGAGGAUUGAGCAUCA
B11: chr5:128448638:128448639:+_ENSG00000066583_ENST00000173527|hu_mus|hu_hu_hu_mus_False|28_48 (ssRNA)
RNA: GGGAGUUCUACAGUCCGACGAUCGGCACUCGCCUUAAUUAGGUUCUGAAUUUCCUUGAACUUCGGGUGGUCUUUGUCAGCCACCAGCUGAAGCAGAACAGCCUCACUCGUGGUCACGAUGAUCCCAGUGCGGGCAAGACGCUCCAACAGAGGAUUGAGCAUCA
B12: chr11:77336104:77336105:-_ENSG00000074201_ENST00000525064|hu_mus|hu_hu_hu_mus_False|1_28 (ssRNA)
RNA: GGGAGUUCUACAGUCCGACGAUCCUCACACAUUGCUGUGAACAUCGCCUCCAAUGCUGACUUAUCACUGGGCACAAAUCGAAAUUCAGAAAUGGGUUCAACAUCAUCAUCACUGUCCUCAUCUUCAUCAGAGAGAGCAGGUUCCAACAGAGGAUUGAGCAUCA
B13: chr20:47733735:47733736:-_ENSG00000124214_ENST00000360426|hu_hu|FALSE|FALSE (ssRNA)
RNA: GGGAGUUCUACAGUCCGACGAUCCACAUCCUUGCCGAUACCAUGGCUGAUCAGAGGUGGCUGAGAGGAGCAAUUGAUAAGAGAUACAAAUUCGUUCUUGUUGUUUUUGGGGAAGUCUUUGUAUUCAACCUGGAAUCCCUGGACCAACAGAGGAUUGAGCAUCA
B14: chr2:103616161:103616162:-_ENSMUSG00000027184_ENSMUST00000111147|mus_mus|motif|central (ssRNA)
RNA: GGGAGUUCUACAGUCCGACGAUCCUCAUCCACUUGCUCCUUCUCACCACUGCUGAACUGUGUUUCUGCCAUGAACUGCCGGUUGACAUACUCUGUUGAUUCAACCUCACUUUGCUCUGUGUAUUCUUCCGCUGGCUCAGGUUCCAACAGAGGAUUGAGCAUCA
B15: chr8:112747817:112747818:+_ENSMUSG00000046441_ENSMUST00000056972|mus_mus|motif|central (ssRNA)
RNA: GGGAGUUCUACAGUCCGACGAUCAAUGACCUUUGGUUUUGGCUUAAAGCUGUUCUUUCUUAUUAGUUGAAGUAGUUAUAGCGGGCAAAAGUCAUACAAAAAAAAAAUCUGUAUUUCAUUUCAAUUCAAAGAAAAUGAAGCCACCAACAGAGGAUUGAGCAUCA
B16: chr13:115007635:115007636:+_ENSG00000130177_ENST00000356221|hu_mus|FALSE|FALSE (ssRNA)
RNA: GGGAGUUCUACAGUCCGACGAUCCAGUUUCAGAGCCUCUUUGUAACUGUAGGUAGCCAGGGUGCGAUUAUCUAAAGCAUCAUAGAUCUUCCCUCUCAGGAGACAAAUCGAGCUCUUUAUGGAAGACUGUGACAUCUCCCAGUCCAACAGAGGAUUGAGCAUCA
B17: chrX:20248820:20248821:+_ENSMUSG00000001924_ENSMUST00000001989|mus_mus|mus_mus_mus_hu_True|68_78 (ssRNA)
RNA: GGGAGUUCUACAGUCCGACGAUCGGCGAAGUCCGUCACCACAAAGUCAGGUUCUGCCAGUGAUGCUGGCAAGGAUUUAAAGCUAAUCUUCUUAGGUACUUUGACCUGACUGACGAUGCCUCCACGGAUGUAGUCGGAGAAGUUCAACAGAGGAUUGAGCAUCA
B18: chr7:54823571:54823572:-_ENSG00000132432_ENST00000352861|hu_mus|hu_hu_hu_mus_False|88_88 (ssRNA)
RNA: GGGAGUUCUACAGUCCGACGAUCUCCCAUGAUAGCAAAUCCUAUAGCUGUUGCCAUGGCAAUCUUCUGGAAUUCUUUUCUGUCGGGUUUGGUGCAUCUUUUAACCAGCCGAAUUGAGUCCUUUACAAACUGCCGGCUGGGCUCCAACAGAGGAUUGAGCAUCA
B19: chr8:17827181:17827182:+_ENSG00000078674_ENST00000519253|hu_hu|FALSE|FALSE (ssRNA)
RNA: GGGAGUUCUACAGUCCGACGAUCGCUUUCAAAAGGUUUUGGAAAAGCCAUAUAUUCUGUUUUUCCUGAAGAAUUCUGGGCUAAGGGUUGCUGCUGUUCACUGGGUGUAGAGAUAUUCUGAGAAAAAUCUCCAAAAUUAGAAGGCAACAGAGGAUUGAGCAUCA
B20: chr7:91631701:91631702:+_ENSG00000127914_ENST00000356239|hu_hu|FALSE|FALSE (ssRNA)
RNA: GGGAGUUCUACAGUCCGACGAUCUUCAUUUAGCUGAAUACAUUGUUGUUUGAGGUCCUCAUUUUCCUCUAUAAGUAUUUCUAUUUCUUUUUCCCACACAGAGUCUUUGGAUUUGGACUUAAUGGAGUCUAAGAAAAUCAAUCUCAACAGAGGAUUGAGCAUCA
B21: chr7:30640729:30640730:+_ENSG00000106105_ENST00000389266|hu_mus|FALSE|FALSE (ssRNA)
RNA: GGGAGUUCUACAGUCCGACGAUCCUGGAUGAUAUUGUUCUUCAAAGCACAUCCUACCGGCCCGAAGUCAUACAAUCCACUGACACCUCCAUAAAUAGCAAAAGCCUGAUCGUAGAAAAACCUCCUCUUCAACGUAUCUUCCAUCAACAGAGGAUUGAGCAUCA
B22: chr15:96202663:96202664:+_ENSMUSG00000033237_ENSMUST00000096250|mus_mus|FALSE|FALSE (ssRNA)
RNA: GGGAGUUCUACAGUCCGACGAUCACUGCUUGUGGACGGUGACCCACCCAGAGUUAACACAGGUCCAUUAGAAACUCUUUCUAGUUGGUCACCUUUGGCAGUAUCUUGCUGAGUGGCACCCGAAGUCCCUUGUGGUUCUACUGGCAACAGAGGAUUGAGCAUCA

Each binder was assayed against T1, UNK ZnF1-3 (human, UniProt Q9C0B0 31-174) (assay: nsRBNS (natural sequence RNA bind-n-seq); RBNS binding buffer (assumed for nsRBNS): 25 mM Tris pH 7.5, 150 mM KCl, 3 mM MgCl2, 0.01% Triton X-100, 500 ug/ml BSA, 20 U/ml SUPERase-In, 4 C; UNK is unkempt and MSI1 is Musashi-1; names of the RNAs are library labels; protein concentration not given here; high values mean tight binding).
T1 sequence: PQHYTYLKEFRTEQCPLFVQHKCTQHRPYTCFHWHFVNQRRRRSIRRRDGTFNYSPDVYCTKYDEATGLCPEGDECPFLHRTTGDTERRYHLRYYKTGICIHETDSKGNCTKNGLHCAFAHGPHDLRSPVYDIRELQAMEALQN
For B1, the binding signal was 1.28 enrichment R.
B2 gave a binding signal of 1.02 enrichment R.
In the case of B3, the binding signal is reported as 1.07 enrichment R.
B4 was tested, and the binding signal was 0.935 enrichment R.
In the case of B5, the binding signal is reported as 1.01 enrichment R.
For B6, the binding signal was 0.378 enrichment R.
B7 gave a binding signal of 1.24 enrichment R.
B8 gave a binding signal of 0.814 enrichment R.
B9 was tested, and the binding signal was 1.66 enrichment R.
Binder B10 has a binding signal of 1.36 enrichment R.
With B11 the binding signal was 0.627 enrichment R.
For B12, the binding signal was 0.877 enrichment R.
Work on B13 yielded a binding signal of 1.71 enrichment R.
Binder B14 has a binding signal of 0.54 enrichment R.
With B15 the binding signal was 0.837 enrichment R.
B16 showed a binding signal of 0.821 enrichment R.
In the case of B17, the binding signal is reported as 0.581 enrichment R.
B18 was tested, and the binding signal was 0.63 enrichment R.
B19 showed a binding signal of 1.64 enrichment R.
B20 was tested, and the binding signal was 0.449 enrichment R.
With B21 the binding signal was 1.35 enrichment R.
Work on B22 yielded a binding signal of 0.454 enrichment R.
